{
  "source": "PubChem BioAssay AID687022",
  "about": "(Broad Institute, 2013)",
  "note": "In all, about 1,000 compounds went through this assay and about 360 (36%) were called active.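 Rule for the calls: active = Fitted curve of melting temperature shift crosses the 1.0 threshold at or below the sample's highest valid tested concentration; inconclusive = Flat fit with activity 30 to 70, or invalid fit; inactive = Opposite direction, flat within 30, or no crossing.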 Most of the strongest results are missing from this list.",
  "data": [
    {"biological_target": "Fibroblast growth factor 22 (Homo sapiens) (UniProt Q9HCT0)", "sequence (Q9HCT0 whole entry, looked up)": "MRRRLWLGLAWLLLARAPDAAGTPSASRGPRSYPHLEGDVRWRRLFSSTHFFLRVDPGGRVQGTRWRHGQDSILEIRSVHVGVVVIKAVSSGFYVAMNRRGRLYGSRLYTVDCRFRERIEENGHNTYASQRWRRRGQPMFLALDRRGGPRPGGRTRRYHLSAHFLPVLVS", "experiment": "binders of human FGF22 protein, dose response, FGF22 synaptogenesis inhibitor project, biophysical, thermal shift, cherry-pick (AID 687022); note: reference of the scale not given here", "conditions": "recombinant FGF22 thermal shift, SYPRO orange melting; at 38 µM (top of the series) unless noted", "values": [
      {"compound": "C[C@H]1CN([C@@H](C)CO)C(=O)c2cc(NC(=O)Cc3ccccc3)ccc2O[C@H]1CN(C)Cc1ccc2c(c1)OCO2", "Tm shift activity": "inactive: -0.068%"},
      {"compound": "CCC(=O)N1[C@@H](CO)[C@@H]2c3ccccc3N(S(=O)(=O)c3ccc(F)cc3)C[C@@H]21", "Tm shift activity": "inactive: -0.157%"},
      {"compound": "O=C(NCC[C@@H]1CC[C@@H](NC(=O)C2CCOCC2)[C@H](CO)O1)Nc1ccc(Cl)cc1", "Tm shift activity": "inactive: 0.778% [at 42 µM]"},
      {"compound": "CSc1ccc(C(=O)NCC2CCN(C(=O)C(=O)c3cc4ccccc4o3)CC2)cc1", "Tm shift activity": "inactive: -1.12%"},
      {"compound": "COCC#Cc1cnc2c(c1)C(=O)N([C@H](C)CO)C[C@H](C)[C@H](CN(C)C(=O)c1cnccn1)O2", "Tm shift activity": "inactive: -0.135%"},
      {"compound": "C[C@H](CO)N1C[C@H](C)[C@@H](CN(C)C)Oc2ncc(-c3cccnc3)cc2C1=O", "Tm shift activity": "inactive: 0.133% [at 42 µM]"},
      {"compound": "COc1cccc(NC(=O)N[C@H]2C=C[C@@H](CC(=O)N3CCN(C)CC3)O[C@H]2CO)c1", "Tm shift activity": "inactive: 0.241% [at 42 µM]"},
      {"compound": "COCC(=O)N1CC2(C1)[C@@H](c1ccccc1)[C@@H](CO)N2C(=O)NC1CCCC1", "Tm shift activity": "inactive: -0.066%"},
      {"compound": "Cc1noc(C)c1NC(=O)Nc1ccc2c(c1)C(=O)N(C)[C@H]1CC[C@H](CC(=O)N[C@@H]3CCN(Cc4ccccc4)C3)O[C@@H]1CO2", "Tm shift activity": "inactive: -0.093%"},
      {"compound": "C[C@H]1CN([C@@H](C)CO)C(=O)c2cc(C#Cc3ccccc3F)cnc2O[C@H]1CN(C)S(=O)(=O)c1ccccc1", "Tm shift activity": "inactive: -0.393% [at 42 µM]"},
      {"compound": "CN(C(=O)CCc1nnc(CCCCc2ccccc2)o1)C1CCOCC1", "Tm shift activity": "inactive: 0.106%"},
      {"compound": "CCCNC(=O)N1C[C@@H]2[C@H](c3ccccc31)[C@H](CO)N2Cc1ccc(F)cc1", "Tm shift activity": "inactive: 0.09%"},
      {"compound": "C/C=C/c1ccc([C@H]2[C@@H](CO)N(C(C)=O)C23CN(C(=O)c2ccc(F)cc2)C3)cc1", "Tm shift activity": "inactive: -0.84%"},
      {"compound": "Nc1nc(-c2cccnc2)nn1C(=O)c1ccc(F)cc1", "Tm shift activity": "inactive: -0.035%"},
      {"compound": "COc1cc(OC)c(C(=O)OCC(=O)NCC2CCCCC2)cc1OC", "Tm shift activity": "inactive: -0.139%"},
      {"compound": "O=C(C1CCOCC1)N1C[C@@H]2[C@H](c3ccccc31)[C@@H](CO)N2Cc1ccccc1", "Tm shift activity": "inactive: -0.009% [at 42 µM]"},
      {"compound": "CCS(=O)(=O)NCCNc1ccc([N+](=O)[O-])cc1", "Tm shift activity": "inactive: -0.119%"},
      {"compound": "C[C@@H]1CN([C@@H](C)CO)S(=O)(=O)c2ccc(C3=CCCCC3)cc2O[C@H]1CN(C)C(=O)CN(C)C", "Tm shift activity": "inactive: -0.231%"},
      {"compound": "CS(=O)(=O)Nc1ccc2c(c1)[C@@H]1C[C@H](CC(=O)NCCc3ccccc3)O[C@@H](CO)[C@@H]1O2", "Tm shift activity": "inactive: 0.062%"},
      {"compound": "CC(C)NC(=O)N1C[C@@H]2[C@H](c3ccccc31)[C@@H](CO)N2Cc1ccccn1", "Tm shift activity": "inactive: -0.058% [at 42 µM]"},
      {"compound": "CCC(=O)N1CC2(C1)[C@H](c1ccccc1)[C@H](CO)N2S(=O)(=O)Cc1ccccc1", "Tm shift activity": "inactive: -0.305%"},
      {"compound": "COc1ccc(C(=O)Nc2ccccc2N2CCOCC2)cc1S(=O)(=O)N1CCOCC1", "Tm shift activity": "inactive: -0.009%"},
      {"compound": "Cc1noc(C)c1NC(=O)Nc1ccc2c(c1)CC(=O)N([C@@H](C)CO)C[C@H](C)[C@@H](CN(C)Cc1ccc3c(c1)OCO3)O2", "Tm shift activity": "inactive: -0.148%"},
      {"compound": "C/C(CC(=O)Nc1ccc2c(c1)OCCO2)=N\\NC(=O)COc1ccc(C)cc1Br", "Tm shift activity": "inactive: -0.098%"},
      {"compound": "OC[C@H]1[C@H](c2ccc(-c3cccnc3)cc2)[C@H]2CN(Cc3ccccn3)CCCCN21", "Tm shift activity": "inactive: -0.002%"},
      {"compound": "C[C@@H]1CN([C@H](C)CO)C(=O)Cc2cc(NS(C)(=O)=O)ccc2O[C@@H]1CN(C)Cc1ccc(C(=O)O)cc1", "Tm shift activity": "inactive: 0.177% [at 42 µM]"},
      {"compound": "COc1ccc(CCNS(=O)(=O)CCNC(=O)c2ccc3c(c2)OCO3)cc1", "Tm shift activity": "inactive: -0.261%"},
      {"compound": "CCCCNC(=O)C1c2cc(OC)c(OC)cc2C(=O)N(C)C1c1cccs1", "note": "(configuration not stated)", "Tm shift activity": "inactive: 0.787% [at 5 µM]"},
      {"compound": "COCC(=O)N1C[C@H]2[C@@H](c3ccccc31)[C@H](CO)N2C(=O)Nc1ccccc1F", "Tm shift activity": "inactive: -0.026%"},
      {"compound": "Cc1ccccc1-c1ccc2c(c1)O[C@H](CN(C)CC1CC1)[C@H](C)CN([C@H](C)CO)S2(=O)=O", "Tm shift activity": "inactive: -0.477%"},
      {"compound": "CC1C=NC(S(=O)(=O)N2CC[C@@H]3[C@@H](CO)N(C)c4ccc(-c5ccc(F)cc5)cc4[C@@H]32)=N1", "note": "(some centres not stated)", "Tm shift activity": "inactive: -0.187%"},
      {"compound": "COc1ccc(-c2ccc([C@H]3[C@H](CO)N4CCCCN(C(=O)c5ccc6c(c5)OCO6)C[C@@H]34)cc2)cc1", "Tm shift activity": "inactive: -0.203% [at 42 µM]"},
      {"compound": "Cc1noc(C)c1S(=O)(=O)N(C)C[C@H]1Oc2ccc(NS(=O)(=O)c3cccs3)cc2C(=O)N([C@@H](C)CO)C[C@H]1C", "Tm shift activity": "inactive: -0.774%"},
      {"compound": "Cc1ccc(S(=O)(=O)Nc2ccc3c(c2)C(=O)N([C@@H](C)CO)C[C@@H](C)[C@@H](CN(C)C)O3)cc1", "Tm shift activity": "inactive: -0.078%"},
      {"compound": "O=S(=O)(c1cccc2cccnc12)N1CCN(Cc2ccccc2)CC1", "Tm shift activity": "inactive: -0.1%"},
      {"compound": "COc1ccc(/C=N/N2C(C)CCCC2C)cc1OC", "note": "(configuration not stated)", "Tm shift activity": "inactive: 0.063%"},
      {"compound": "COc1cccc2sc(NNC(=O)C3COc4ccccc4O3)nc12", "note": "(configuration not stated)", "Tm shift activity": "inactive: -0.355%"},
      {"compound": "C[C@@H]1CN([C@@H](C)CO)C(=O)c2cc(NS(=O)(=O)c3cn(C)cn3)ccc2O[C@@H]1CN(C)CC1CC1", "Tm shift activity": "inactive: -0.126% [at 42 µM]"},
      {"compound": "O=C(C[C@H]1C[C@@H]2c3cc(NC(=O)NC4CCCC4)ccc3O[C@@H]2[C@H](CO)O1)NC1CCCC1", "Tm shift activity": "inactive: -0.22%"},
      {"compound": "COCC#Cc1ccc2c(c1)O[C@H](CN(C)C(=O)c1ccccc1)[C@@H](C)CN([C@@H](C)CO)S2(=O)=O", "Tm shift activity": "inactive: 0.34% [at 42 µM]"},
      {"compound": "Cc1ccc(S(=O)(=O)N2C[C@@H](O)COC[C@@H]3O[C@@H](CC(=O)NCc4ccc(Cl)c(Cl)c4)CC[C@H]32)cc1", "Tm shift activity": "inactive: -5.1% [at 42 µM]"},
      {"compound": "Cn1c(=O)c2c(-c3ccccc3)n(-c3cc([N+](=O)[O-])ccc3O)cc2n(C)c1=O", "Tm shift activity": "inactive: 0.019%"},
      {"compound": "Cc1ccc(S(=O)(=O)N[C@H]2CC[C@H](CCNC(=O)C3CCOCC3)O[C@H]2CO)cc1", "Tm shift activity": "inactive: -0.002% [at 42 µM]"},
      {"compound": "COc1ccc(NS(=O)(=O)c2cccc(C(=O)NN=Cc3ccc(OC)c(O)c3)c2)cc1", "Tm shift activity": "inactive: -0.26%"},
      {"compound": "C[C@H](CO)N1C[C@H](C)[C@H](CN(C)C(=O)CC2CC2)Oc2ncc(C#CC3(O)CCCC3)cc2C1=O", "Tm shift activity": "inactive: -0.167%"},
      {"compound": "CCC(C)[C@H](NC(=O)N1CCn2c1nc1ccccc12)C(=O)NCCc1ccccc1", "note": "(some centres not stated)", "Tm shift activity": "inactive: -0.929%"},
      {"compound": "COc1ccc(S(=O)(=O)N[C@H]2CC[C@H](CC(=O)N3CCc4ccccc4C3)O[C@@H]2CO)cc1", "Tm shift activity": "inactive: -0.166%"},
      {"compound": "Cc1ccc(-c2c[n+](CC(=O)Nc3ccc(C)cc3C)c3n2CCC3)cc1", "Tm shift activity": "inactive: -0.152%"},
      {"compound": "CCCN(C)C[C@@H]1Oc2cc(C#CC(C)(C)O)ccc2S(=O)(=O)N([C@@H](C)CO)C[C@@H]1C", "Tm shift activity": "inactive: -0.025% [at 42 µM]"},
      {"compound": "CCC(=O)Nc1ccc2c(c1)C(=O)N(C)C[C@H](OC)[C@@H](C)CN(C(=O)CC)[C@@H](C)CO2", "Tm shift activity": "inactive: -0.111% [at 42 µM]"},
      {"compound": "Oc1ccc(C=NNC(=S)Nc2ccccc2)nc1", "Tm shift activity": "inactive: 0.074%"},
      {"compound": "COc1ccc(S(=O)(=O)N(C(C)=O)c2ccc(OC(C)=O)c3ccccc23)cc1[N+](=O)[O-]", "Tm shift activity": "inactive: 0.069%"},
      {"compound": "C[C@H]1CN([C@@H](C)CO)C(=O)c2cc(NC(=O)c3ccncc3)ccc2O[C@@H]1CN(C)S(=O)(=O)c1cn(C)cn1", "Tm shift activity": "inactive: 0.122%"},
      {"compound": "CN(C)CC(=O)Nc1ccc2c(c1)[C@H]1C[C@@H](CC(=O)NCC3CC3)O[C@H](CO)[C@H]1O2", "Tm shift activity": "inactive: -0.011%"},
      {"compound": "C[C@H](CO)N1C[C@H](C)[C@@H](CN(C)C(=O)Nc2cccc3ccccc23)Oc2c(NS(C)(=O)=O)cccc2C1=O", "Tm shift activity": "inactive: -0.1% [at 42 µM]"},
      {"compound": "CN(C)S(=O)(=O)n1cnc([C@@H]2[C@@H]3C(=O)OC[C@@H]3C[C@]23N=CN(Cc2ccccc2)C3=O)c1", "Tm shift activity": "inactive: -0.031%"},
      {"compound": "O=C(NNC(=O)c1ccccc1O)c1ccc(NS(=O)(=O)c2ccc(F)c(F)c2)cc1", "Tm shift activity": "inactive: -0.106%"},
      {"compound": "CCCCN1CC(N2CCN(Cc3cccc(C)c3)CC2)CS1(=O)=O", "note": "(configuration not stated)", "Tm shift activity": "inactive: 0.007%"},
      {"compound": "COc1cc(/C=N/NC(=O)c2ccncc2)ccc1OCC(=O)Nc1cccc([N+](=O)[O-])c1", "Tm shift activity": "inactive: -0.027%"},
      {"compound": "Cc1ccc(CN2CCNC(=O)C2CC(=O)N(C)C2CCCCC2)cc1", "note": "(configuration not stated)", "Tm shift activity": "inactive: -0.116%"},
      {"compound": "CC(C)(C)NC(=O)N1CCC(CO)(Cc2ccccc2Cl)CC1", "Tm shift activity": "inactive: -0.024%"},
      {"compound": "C[C@H]1CN([C@@H](C)CO)S(=O)(=O)c2ccc(C#CC3CCCCC3)cc2O[C@@H]1CN(C)C", "Tm shift activity": "inactive: 0.261% [at 42 µM]"},
      {"compound": "C[C@H](CO)N1C[C@H](C)[C@H](CN(C)C(=O)Nc2ccccc2)Oc2ccc(NC(=O)Nc3ccccc3)cc2CC1=O", "Tm shift activity": "inactive: 0.289%"},
      {"compound": "O=C(O)C1CSC(c2ccc3c(c2)OCO3)N1", "note": "(configuration not stated)", "Tm shift activity": "inactive: 0.16%"},
      {"compound": "C[C@H](CO)N1C[C@H](C)[C@@H](CN(C)CC2CC2)Oc2ccc(NS(=O)(=O)c3cccs3)cc2C1=O", "Tm shift activity": "inactive: -0.129% [at 42 µM]"},
      {"compound": "CN(CC(=O)Nc1ccccc1Cl)C(=O)COC(=O)c1nc(Cl)ccc1Cl", "Tm shift activity": "inactive: -0.071%"},
      {"compound": "C[C@H](CO)N1C[C@H](C)[C@H](CN(C)C(=O)c2cc(-c3ccccc3)on2)OCc2cnnn2CCCC1=O", "Tm shift activity": "inactive: 0.029%"}
    ]}
  ]
}
